# Results taken from PubChem BioAssay AID1508623 (National Center for Advancing Translational Sciences (NCATS), 2021).
# Screen size: about 48,000 compounds; about 450 (0.94%) were called active. Another 19% or so got no clear call; they are omitted. Calls follow the shape of the dose curve; as a rule, active = well fitted inhibition curve with a large enough effect; inconclusive = small, poorly fitted or top-dose-only effect; inactive = no such curve, though single readings can be large or run the other way. Some of the results follow.
# Assay: Primary qHTS for Identification of Small Molecule Inhibitors of Huntingtin Promoter Activity; also: nearly all actives have a fitted effect of over 50% in size
# Details: HEK293 HTT promoter firefly luciferase reporter (activity 0% = vehicle and -100% = no light), 24 h; series mostly up to 57.5 µM; activity change, negative = inhibition: at the top concentration
# Method in brief: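 HEK293 cells carrying firefly luciferase reporters were seeded at 2,500 per well in Opti-MEM and cultured for 24 h. They were then treated with compounds at up to 57.5 uM final for 24 h at 37 degrees C before Dual-Glo luminescence readout.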
row,SMILES,"activity change, negative = inhibition"
1,COc1cc2nccc(Oc3ccc(NC(=O)Nc4ccc(F)cc4F)c(F)c3)c2cc1OC,inactive: -2.51%
2,CCN(CC)CCOC(=O)c1ccc(NC(=O)c2cc3cc(OC)ccc3oc2=O)cc1,inactive: -9.16%
3,COCCNC(=O)CN1C(=O)COc2ccc(S(=O)(=O)N3CCCC3)cc21,inactive: -14.6%
4,CCOC(=O)N1CCc2c(sc3c2C(=O)NC(c2ccc(C(=O)OC)cc2)N3)C1 (configuration not stated),inactive: -19.8%
5,Cc1nnc(SCC(=O)Nc2ccc(N(C)C)cc2)[nH]c1=O,inactive: 8.26%
6,CCc1ccc(NC(=O)Cn2c(=O)n(CCCC(=O)NCCc3ccc(OC)c(OC)c3)c(=O)c3ccccc32)cc1,inactive: 2.53%
7,Cc1ccccc1NC(=O)CCn1nc(-c2ccccc2)c2ccccc2c1=O,inactive: -29.8%
8,CCOc1ccc(Sc2cc(C(=O)NCc3ccccc3Cl)c3ccccc3n2)cc1,inactive: -25.2%
9,Cc1c(Cl)cccc1-n1nc(C)c2c(C)cc(=O)n(CC(=O)N3CCCc4ccccc43)c21,inactive: -26.9%
10,CCCNC(=O)C1CCN(c2nc3ccc(C)cc3[nH]2)CC1,inactive: 29.5%
11,Cc1ccc(CNC(=O)CCCN2C(=O)CCn3nc(-c4cccn4C)cc32)cc1,inactive: -1.75%
12,COc1ccc(-c2nc3ccccc3n3c(-c4ccc(OC)cc4)c4c(=O)n(C)c(=O)n(C)c4c23)cc1,inactive: 11.3%
13,CCOC(=O)c1ccc2c(c1)N(Cc1ccc(F)cc1Cl)C(=O)c1ccccc1S2,inactive: -27.7%
14,Cc1cnc(=O)[nH]c1SCC(=O)Nc1cc(C(F)(F)F)ccc1Cl,inactive: -0.422%
15,CCN1CCN(c2cc(C)c3cc(NC(=O)/C=C/c4ccc(C)cc4)ccc3n2)CC1,inactive: -9.23%
16,COc1cccc(NC(=O)N(Cc2cn(C)c3ccccc23)C2CCCCCC2)c1,inactive: -9.57%
17,Cc1cccc(C(=O)Nc2ccc(N3CCC(N4CCCCC4)CC3)c(C(=O)O)c2)c1,inactive: -7.99%
18,Cc1cccc(CN2CCN(CC(=O)Nc3c(C)cccc3C)S2(=O)=O)c1,inactive: -5.52%
19,NC1=NC(c2cc(F)cc(F)c2)n2c(nc3ccccc32)N1 (configuration not stated),inactive: -17.6%
20,Cc1ccc(Cl)cc1NC(=O)CC1Sc2ccccc2NC1=O (configuration not stated),inactive: 45.1%
21,Cc1ccc(CNC(=O)CCc2c(C)nc3c4c(C)cc(C)nc4nn3c2C)cc1,inactive: 4.39%
22,NC(=O)CSc1oc(-c2cccs2)nc1S(=O)(=O)c1ccc(Br)cc1,inactive: -13.3%
23,COc1ccc(S(=O)(=O)N2CCN(c3ccccc3)CC2)cc1-c1noc(C)n1,inactive: -17.1%
24,COC(=O)c1ccc(NC(=O)N2CCN(c3nnc(C)c4c(C)n(-c5ccccc5)nc34)CC2)cc1,inactive: -21.6%

row,SMILES,"activity change, negative = inhibition"
1,O=C(c1cnc2c(c1)COc1ccccc1-2)c1ccccc1O,inactive: 13.4%
2,Cn1nc(-c2ccccc2F)c2cc(C(=O)Nc3cc(F)ccc3F)sc21,inactive: -15.9%
3,CC(C)c1cnc2c(c1SCC(=O)c1ccccc1)c(=O)n(C)c(=O)n2C,inactive: -14.6%
4,O=C(NCc1ccccc1)c1ccc2c(c1)N(Cc1ccccc1)C(=O)c1ccccc1S2(=O)=O,inactive: -14.9%
5,CCOC(=O)Cn1c(=O)n(C2CCCCC2)c2nc(-c3ccc(OC)cc3)nc(C(N)=O)c21,inactive: -7.29%
6,Nc1ccc(C(=O)Nc2ccccc2N)cc1,inactive: 80.8%
7,Cc1cc(C)cc(NC(c2nnc(-c3cccc(F)c3)o2)c2ccc(F)cc2Cl)c1 (configuration not stated),inactive: -22.2%
8,Cn1c(=O)n(C)c2cc(CNCc3ccccc3)ccc21,inactive: -5.19%
9,Cc1ccc(CNS(=O)(=O)c2cc(Br)cc3c2N(C(=O)C2CC2)CC3)cc1,inactive: -9.27%
10,CCOc1ccc(C(=O)Nc2ccc(-c3nnc4n3CCCCC4)cc2)cc1OCC,inactive: -9.06%
11,Cc1cccc2c(=O)cc(CSCC(=O)Nc3ccc(Cl)cc3)[nH]c12,inactive: -2.24%
12,Cc1ccc(Cn2c(=O)n(Cc3ccccc3)c(=O)c3c(C)c(C)sc32)cc1,inactive: -13.2%
13,Cc1ccc(CNC(=O)C(=O)NCC(c2ccco2)S(=O)(=O)c2ccc(C)cc2)cc1 (configuration not stated),inactive: 4.03%
14,CC(C)(C)C(=O)Nc1nc2nc(-c3ccccc3)cc(=O)n2[nH]1,inactive: 2.52%
15,Cc1ccc2oc(-c3cccc(NC(=O)c4ccc(N5CCC(C)CC5)c([N+](=O)[O-])c4)c3)nc2c1,inactive: -24.7%
16,COc1ccc(C2CC(=O)c3cc(-c4nc(-c5cccc([N+](=O)[O-])c5)cs4)c(=O)n(-c4ccc(F)cc4)c3C2)cc1 (configuration not stated),inactive: -2.79%
17,CCc1cccc(C)c1NC(=O)c1cc(S(=O)(=O)N2CCC3(CC2)OCCO3)ccc1F,inactive: -4.49%
18,C=CCn1c(=O)n([C@@H]2O[C@H](CO)[C@@H](O)[C@H]2O)c2nc(N)[nH]c(=O)c21,inactive: -1.39%
19,CC(=O)c1ccc(NC(=O)CSc2c(C(C)C)cnc3c2c(=O)n(C)c(=O)n3C)cc1,inactive: -7.79%
20,C[C@]12C=CC(=O)C=C1CC[C@@H]1[C@@H]2C(=O)C[C@@]2(C)[C@H]1CC[C@]2(O)C(=O)CO,inactive
21,Cc1c(-c2nnc(SCC(=O)Nc3ccc(Br)cc3)o2)nnn1-c1ccc(F)cc1,inactive: 12.4%
22,O=C(Cn1c(=O)n(Cc2ccc(C(=O)NCc3ccc4c(c3)OCO4)cc2)c(=O)c2ccccc21)Nc1ccc(F)cc1F,inactive: -13%
23,COC(=O)c1ccn(-c2nc(-c3ccc(Cl)cc3)cc(C(F)(F)F)n2)n1,inactive: -24.1%
